# Data reported in the supplement of paper PMC3334620.
# Over roughly 33,000 sequences, “E-score (-0.5 to 0.5)” has its median near -0.035; the highest 2% begin near 0.35. This is one part of the list.
# Target: T1, Pdr3 (UniProt P33200)
# T1 sequence: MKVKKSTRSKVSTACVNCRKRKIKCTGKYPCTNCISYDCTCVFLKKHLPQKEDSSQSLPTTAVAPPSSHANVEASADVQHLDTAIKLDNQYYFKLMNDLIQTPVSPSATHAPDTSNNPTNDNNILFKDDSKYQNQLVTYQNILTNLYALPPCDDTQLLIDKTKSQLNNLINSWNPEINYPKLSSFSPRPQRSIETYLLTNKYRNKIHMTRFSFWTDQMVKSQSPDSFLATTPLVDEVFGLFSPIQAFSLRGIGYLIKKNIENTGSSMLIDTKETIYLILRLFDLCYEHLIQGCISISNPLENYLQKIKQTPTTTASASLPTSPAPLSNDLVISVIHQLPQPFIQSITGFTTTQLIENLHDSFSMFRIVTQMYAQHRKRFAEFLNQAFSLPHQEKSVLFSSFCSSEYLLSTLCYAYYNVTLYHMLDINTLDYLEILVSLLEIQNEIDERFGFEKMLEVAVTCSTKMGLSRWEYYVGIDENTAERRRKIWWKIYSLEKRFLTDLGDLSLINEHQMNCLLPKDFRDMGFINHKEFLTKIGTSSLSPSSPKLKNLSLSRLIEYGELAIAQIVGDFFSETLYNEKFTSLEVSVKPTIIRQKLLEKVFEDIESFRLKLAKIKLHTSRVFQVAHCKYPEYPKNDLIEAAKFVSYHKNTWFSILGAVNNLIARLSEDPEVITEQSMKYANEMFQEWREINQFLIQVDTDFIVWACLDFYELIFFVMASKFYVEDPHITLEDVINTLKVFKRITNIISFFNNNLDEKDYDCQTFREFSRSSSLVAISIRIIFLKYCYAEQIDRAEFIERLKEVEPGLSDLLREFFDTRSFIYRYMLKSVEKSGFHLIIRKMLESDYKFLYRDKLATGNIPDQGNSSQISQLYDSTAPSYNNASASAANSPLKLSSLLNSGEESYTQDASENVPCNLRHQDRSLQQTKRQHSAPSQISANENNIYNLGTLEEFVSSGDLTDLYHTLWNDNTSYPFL
# Assay: PBM E-score (8-mer binding enrichment) (E-score (-0.5 to 0.5)); higher = stronger / more preferred TF binding; most listed sequences are background and not binding sites
# Conditions: protein concentration: 200 nM; construct: GST-full length
# Protocol: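 Universal 'all 10-mer' protein binding microarrays (Agilent AMADID 015681) probed with GST-tagged S. cerevisiae TFs (full-length or DBD) made by in vitro transcription/translation (PURExpress), about 100-200 nM. Bound TF was detected with fluorescent anti-GST. Each ungapped 8-mer (which stands for itself and its reverse complement) is scored by the PBM enrichment score (E-score), a modified Wilcoxon-Mann-Whitney statistic from -0.5 to +0.5, computed with the Universal PBM Analysis Suite. Scale: above 0.35 generally sequence-specific binding.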
row,Sequence,PBM E-score
1,GACTATTA,-0.135
2,TTTAAAAA,-0.0414
3,CATGTAGG,0.074
4,ATGGATAA,0.0866
5,AGGGAATC,0.00236
6,ATAACGAT,-0.0842
7,ATGGCAGC,-0.0926
8,AGGAAAAC,0.0846
9,CTCACTGC,-0.163
10,CACGGAGG,0.26
11,CATACGGG,0.0966
12,CAAGTATA,-0.211
13,AGGGAAGA,-0.238
14,AGCCGTCG,0.1
15,AAATACTG,-0.0815
16,ACTGCGCG,0.0744
17,AGGTGAGA,-0.0387
18,CTAGTACA,-0.0998
19,GGCTATTA,-0.102
20,AGCTTTCC,0.202
21,AGAGCCGA,0.139
22,ATCCGAAC,0.316
23,ACCACGAA,-0.101
24,ACGTGATG,-0.198
25,AAACAGCG,0.0751

row,Sequence,PBM E-score
1,GTGGACGA,-0.0123
2,CGTACCAA,0.0303
3,CTCTGTGA,-0.234
4,AGGAGACC,-0.137
5,CGTGTGCC,-0.0954
6,GCAGCCCC,0.202
7,ATGGCGCG,0.126
8,CCGTGCGC,0.286
9,AACGTCGG,0.0976
10,ATAGCTTA,-0.0418
11,CATGATGC,-0.0779
12,ATGGCTAG,-0.19
13,AGATGCAT,-0.0177
14,CAACTCAG,-0.179
15,ACCTTACG,-0.0126
16,GGATATTA,0.216
17,CACGCGGG,0.0841
18,CGAGGCTC,-0.0559
19,CTAGCGGA,0.182
20,GTAAACCA,0.0021
21,ATTCGTAG,-0.172
22,CTCCCCAC,-0.1
23,AGTAATGC,0.0152
24,AACCGAGA,0.155
25,ATCCTCTA,-0.111

row,Sequence,PBM E-score
1,GGTAAGAA,-0.155
2,ATTTTCAG,0.0218
3,TCGACAAA,0.131
4,GCTAGCCC,-0.209
5,CATATCAA,0.0688
6,GGCCCCAA,-0.0586
7,CGCTAGGC,-0.135
8,AAGATAGA,-0.184
9,CAGGTATA,-0.149
10,ACTTGCGG,0.0614
11,ACCAGCTG,-0.149
12,TACGTACA,-0.179
13,AAGTCAGG,-0.117
14,CCTTATCG,0.0198
15,GCTTCGCC,-0.18
16,AGGTACGC,0.0437
17,AGCCGAAT,0.234
18,AACGCTGG,0.0348
19,ACGTATTC,0.0428
20,CCATAGGA,-0.22
21,TCCAGGAA,-0.0386
22,AAATTCAG,0.0296
23,CACCCAAA,0.0157
24,ACCAATAA,-0.0282
25,CTGCGTAA,-0.211

row,Sequence,PBM E-score
1,CTTTTGCA,-0.194
2,TCCCCTAA,-0.0508
3,TCGCAAGA,-0.238
4,CTTGACGC,-0.0608
5,GTCGGAGA,0.173
6,ACTGCTGC,-0.00041
7,ATCCAGAG,0.0157
8,GTGCAAAA,-0.168
9,AGTCAGCG,-0.192
10,GAACCACC,0.155
11,CAGCTCCA,-0.0374
12,AATACAAG,0.133
13,CCGCCCCC,0.0913
14,CTCGAAAC,-0.00842
15,CAAACAGG,-0.112
16,CAGCGGGC,0.0194
17,CTGTGGGA,-0.133
18,GCGATAGC,-0.134
19,TAGAGAAA,-0.0506
20,CTAATTTC,0.173
21,CAAATACA,-0.11
22,GCTTCATA,0.101
23,AAGCAAAA,-0.0927
24,CACACGGG,0.148
25,GGGACTCA,-0.205

row,Sequence,PBM E-score
1,TCGCACGA,-0.0634
2,CAGATTCG,-0.0961
3,CCAGACCC,-0.036
4,ACCAGATG,-0.102
5,CCGAGGGA,0.173
6,CGGGCCCC,0.265
7,GGTGACAC,0.0232
8,AGGCGCCA,0.0712
9,AAAAACTT,-0.241
10,CCTGCTCC,0.0627
11,AATCATGA,0.0638
12,TCAAGACA,-0.0323
13,AGTTTGGC,-0.0217
14,AATAAAAG,-0.0835
15,CCAAGTCA,-0.0909
16,GCCGCGGC,0.484
17,AACGCACA,0.0807
18,ATCATGGA,-0.156
19,CGAGAAAG,0.0361
20,AAGTTTGC,-0.00571
21,CGAGCAGA,-0.0147
22,AACTCGTA,-0.111
23,CGCTCTGC,0.0417
24,ATTTCCTC,0.154
25,CATAGCGG,0.128

row,Sequence,PBM E-score
1,CCTCCCCG,0.207
2,TAACCGCA,0.0667
3,AGGAATTA,-0.091
4,CGATCAAA,-0.0395
5,ATGCTTGG,-0.295
6,CTACGAGA,-0.0976
7,ATCGATCC,0.101
8,CATGCGCG,0.127
9,AAGAAGTC,-0.00838
10,AGAAGAGA,-0.233
11,ATTTTTCA,0.0666
12,GCGACCGA,0.0546
13,AACTTCCC,0.0171
14,GGGTTAAA,0.0457
15,AATGGAGC,-0.0307
16,GGTCCGAC,0.269
17,CAGTTTCG,-0.0271
18,CTTCTGTA,-0.135
19,AACGCGTC,0.0596
20,AAAACATC,-0.128
21,CAACAGAG,-0.0573
22,GCGAAATA,0.0781
23,CCATACCC,0.0565
24,CGGAGACA,0.327
25,CTGTGGGC,-0.105

row,Sequence,PBM E-score
1,GGCACCGA,0.0414
2,AGGAGGGC,-0.166
3,CTGGGAGC,-0.192
4,CCATTCCA,0.0798
5,ACCCTTAT,-0.181
6,CCCCCGGA,0.311
7,AATCGCGC,0.247
8,AAAATTCG,0.0531
9,CGCGGTGA,0.176
10,GAAGCAAC,0.0104
11,AAACGAAA,0.0527
12,AAGCTCAG,-0.171
13,TAAGCTCA,-0.11
14,CGTTTGAG,-0.0857
15,CCACACGA,-0.228
16,GAACTTCC,0.241
17,AGATATCA,0.0104
18,TGGTATAA,0.00154
19,CATAACGC,-0.102
20,CATAGCGC,0.165
21,GATATACC,0.132
22,AAACTTCC,0.0751
